In PubChem BioAssay AID540317 (National Center for Advancing Translational Sciences (NCATS), 2011):
Out of some 390,000 compounds screened, about 2,200 (0.56%) were called active. Inconclusive results, whose numbers are uncertain, are shown with a selection of clear calls. Calls follow the shape of the dose curve; as a rule, active = well fitted inhibition curve with a large enough effect; inconclusive = small, poorly fitted or top-dose-only effect; inactive = no such curve, though single readings can be large or run the other way. Potencies of inconclusive entries are doubtful fits and often do not repeat.

What follows are compounds tested against Chromobox protein homolog 1 (Homo sapiens) (UniProt P83916) (assay: HTS for Inhibitors of HP1-beta Chromodomain Interactions with Methylated Histone Tails). Details: AlphaScreen HP1-beta / biotin-H3K9me3 peptide binding; series mostly up to 114 µM.
Sequence of UniProt P83916 (P83916 whole entry, looked up): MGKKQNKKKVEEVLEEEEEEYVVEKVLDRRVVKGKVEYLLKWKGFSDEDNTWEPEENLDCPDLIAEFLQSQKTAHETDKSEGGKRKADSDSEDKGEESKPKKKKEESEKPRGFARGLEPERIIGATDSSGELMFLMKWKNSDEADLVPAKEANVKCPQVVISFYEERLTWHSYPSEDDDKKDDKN
Outline: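 Compound inhibition of the preformed complex between 50 nM HP1-beta and 50 nM biotinylated H3K9me3 peptide was read by AlphaScreen. Buffer was PBS pH 7.4 with 0.01% Tween-20. Incubations ran 30 min at room temperature, with 10 ug/mL donor/acceptor beads.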
Also: nearly all actives have a fitted effect of over 70% in size.
Potency is read from the fitted curve at half-maximal effect; tags tell the direction and shape of the fitted curve.

SMILES | Potency
COc1ccc(NC(=O)/C(C#N)=C\C=C\c2ccco2)cc1 | inconclusive: 25.1 µM [inhibitor, single point]
CC(=O)Nc1ccc2c(O)cc(S(=O)(=O)O)cc2c1 | inconclusive: 56.2 µM [inhibitor, partial curve, poor fit]
CCN(Cc1nc2ccccc2c(=O)[nH]1)C(=O)COc1ccccc1Cc1ccccc1 | inactive
Cc1ccc(C(C)C)c(OCCN(C)C)c1 | inconclusive: 44.7 µM [inhibitor, partial curve, poor fit]
COc1ccc(N2CCN(CCCNC(=O)C3(S(=O)(=O)c4ccc(Cl)cc4)CC3)CC2)cc1 | inconclusive: 20 µM [inhibitor, single point]
COc1ccc(C2=NOC(C(=O)NCc3ccccc3)C2)cc1 (configuration not stated) | inactive
Cc1c(N=Nc2c(-c3ccc([N+](=O)[O-])cc3)[nH]n(C(N)=S)c2=O)cccc1[N+](=O)[O-] | inconclusive: 56.2 µM [inhibitor, partial curve, poor fit]
CCN(CC)S(=O)(=O)c1cc(-c2nnc(Nc3ccc(OC)c(C(N)=O)c3)c3ccccc23)ccc1C | inactive
Cc1ccc(Nc2c(-c3cc(Br)ccc3F)nc3cc(C)ccn23)cc1 | inconclusive: 44.7 µM [inhibitor, partial curve]
CCCCn1c(SCC(=O)N(C)C)nnc1-c1ccncc1 | inactive
Cc1[nH]c2ccccc2c1/C=N\NC(=O)CNc1ccc2c(c1)OCO2 | inconclusive: 79.4 µM [inhibitor, single point]
CCCOc1ccc(CC(=O)NCc2ccco2)cc1OC | inactive
Cc1ccc(C)c(NC(=S)NNC(=S)Nc2ccc(C(C)C)cc2)c1 | inconclusive: 8.91 µM [inhibitor, partial curve, poor fit]
COCCCn1c(=O)c2ccccc2n2c(=S)[nH]nc12 | inconclusive: 79.4 µM [inhibitor, single point]
CC1C/C(=N/Nc2ccc([N+](=O)[O-])cc2[N+](=O)[O-])CC(C)(C)C1 (configuration not stated) | active: 8.91 µM
Oc1ccc(N=Nc2ccccc2-c2nn[nH]n2)c(O)c1 | inactive
COc1cccc(CN(C)Cc2cc(=O)oc3cc(O)c(Cl)cc23)c1 | inconclusive: 25.1 µM [inhibitor, partial curve]
CCc1ccc(/C=N/NC(=O)c2ccc(OC3CCCC3)cc2)s1 | inconclusive: 8.91 µM [inhibitor, single point]
Cc1cccc(C)c1NC1=NC(C)(C)N=C(N)N1 | inconclusive: 79.4 µM [inhibitor, partial curve, poor fit]
COc1ccc(S(=O)(=O)NCc2ccc(C(=O)N3CCc4ccccc4C3)cc2)cc1 | inconclusive: 28.2 µM [inhibitor, single point]
COC(=O)c1ccc(-n2c(C)cc(C(=O)CSc3ccc(NC(C)=O)cc3)c2C)cc1 | inactive
C/C(=C\C(=O)c1c(O)cc(C)oc1=O)N(C)C | inactive
CC(C)(C)c1sc(N)nc1-c1ccccc1 | inactive

SMILES | Potency
CCn1cc(CCC(=O)NCc2cccc(OC)c2OC)c2ccccc21 | inconclusive: 79.4 µM [inhibitor, single point]
c1csc(C2Nc3cccc4cccc(c34)N2)c1 | inconclusive: 7.94 µM [inhibitor, partial curve, poor fit]
Cn1cccc1Cc1nnc(SCC(=O)NCC2CCCO2)n1C (configuration not stated) | inconclusive: 25.1 µM [inhibitor, single point]
CCOc1ccc(-c2cn(-c3ccc(OC)cc3)c(SC)n2)cc1 | inconclusive: 70.8 µM [inhibitor, partial curve]
S=c1[nH]nc(Cn2cnc3ccccc32)n1-c1ccccc1 | inactive
CCn1cc(C(=O)OCC(=O)c2cc(C)n(-c3ccccc3F)c2C)c(=O)c2ccc(C)nc21 | inconclusive: 31.6 µM [inhibitor, full curve]
CC(=Nc1ccccc1)C1=C(O)C(Cc2ccccc2)NC1=O (configuration not stated) | inconclusive: 0.794 µM [inhibitor, full curve]
CNS(=O)(=O)c1ccc(NC(=O)C2CC(=O)N(c3ccc(Cl)cc3)C2)cc1 (configuration not stated) | inconclusive: 35.5 µM [inhibitor, single point]
O=C(c1ccccc1)c1c(O)cc(-c2ccccc2)oc1=O | inconclusive: 31.6 µM [inhibitor, partial curve, poor fit]
COc1cc(/C=C2\C(=O)N(c3ccc(NC(C)=O)cc3)N=C2c2ccccc2)ccc1O | inconclusive: 12.6 µM [inhibitor, full curve]
CCN1CCN(C(=O)NCc2ccccc2)CC1 | inconclusive: 56.2 µM [inhibitor, partial curve, poor fit]
CCOC(=O)NC1(NCc2ccccc2)Oc2ccccc2O1 | inconclusive: 89.1 µM [inhibitor, single point]
COc1cccc(N2CCN(CC(=O)Nc3nc4c(s3)CC(C)CC4)CC2)c1 (configuration not stated) | inconclusive: 39.8 µM [inhibitor, partial curve]
Cc1ccc(-c2nnn(CC(=O)N(c3ccccc3)C(C(=O)NCC3CCCO3)c3cccs3)n2)o1 (configuration not stated) | inconclusive: 89.1 µM [inhibitor, partial curve, poor fit]
C/C(=N/NC(=O)c1cc2ccccc2cc1O)C1C(=O)c2ccccc2C1=O | active: 22.4 µM
CCOc1ccc(Nc2nc(N)c([N+](=O)[O-])c(N3CCN(CC)CC3)n2)cc1 | inconclusive: 3.98 µM [inhibitor, partial curve, poor fit]
CCCC(CCC)c1nc2ccncc2[nH]1 | inconclusive: 20 µM [inhibitor, full curve]
COc1cc(/C=N/Nc2cccc(C)c2)cc(Br)c1O | inconclusive: 79.4 µM [inhibitor, partial curve]
Cc1nc(N/N=C/c2ccc(O)cc2O)cc(N2CCOCC2)n1 | inactive
Cc1nn(S(=O)(=O)c2ccc([N+](=O)[O-])cc2)c(C)c1Sc1ccccc1 | inconclusive: 7.94 µM [inhibitor, full curve]
Clc1ccccc1-c1nc(/C=N/N2CCOCC2)c2ccccn12 | inconclusive: 39.8 µM [inhibitor, full curve]
COc1ccc(NC(=O)c2cc(-c3cccs3)on2)cc1 | inactive
CCN(CC)C(=O)COC(=O)c1cc(-c2ccco2)nc2ccccc12 | inconclusive: 50.1 µM [inhibitor, partial curve]

SMILES | Potency
N=C1C=CC(=C(c2ccc(N)cc2)c2ccc(N)cc2)C=C1 | inconclusive: 8.91 µM [inhibitor, full curve, poor fit]
COc1cccc(C(=O)N(Cc2ccc(N(C)C)cc2)Cc2ccco2)c1 | inconclusive: 28.2 µM [inhibitor, full curve]
COc1ccc(-c2cc(-c3n[nH]c(=S)n3-c3cccc4ccccc34)[nH]n2)cc1 | inconclusive: 44.7 µM [inhibitor, partial curve, poor fit]
CCc1ccc(S(=O)(=O)NCc2cccn2Cc2cccc(C)c2)cc1 | inconclusive: 14.1 µM [inhibitor, partial curve]
COc1ccc(C(=O)NCC(c2ccco2)N2CCc3ccccc3C2)cc1 (configuration not stated) | inconclusive: 89.1 µM [inhibitor, single point]
CCOC(=O)c1c(NC(=O)COC(=O)/C=C/c2ccco2)sc2c1CC(C)(C)NC2(C)C | inconclusive: 39.8 µM [inhibitor, partial curve, poor fit]
O=S(=O)(N/N=C\c1ccc(-c2ccccc2Cl)o1)c1ccccc1 | inconclusive: 28.2 µM [inhibitor, single point]
COc1ccc(CNC(=O)C(c2ccco2)N(C(=O)Cc2cccs2)c2cccnc2)cc1 (configuration not stated) | inconclusive: 89.1 µM [inhibitor, partial curve, poor fit]
COc1ccc(CN2C(=O)N(c3cccc(C)c3)C(=O)C2CC(=O)Nc2ccc(F)cc2)cc1OC (configuration not stated) | inactive
Fc1ccccc1N1CCN(CC2CCCCC2)CC1 | inconclusive: 15.8 µM [inhibitor, full curve, poor fit]
COc1ccc(NC(=O)Nc2cccc3c2O[C@@H](CN(C)CC2CCCCC2)[C@@H](C)CN([C@H](C)CO)C3=O)cc1 | inactive
CC(C)c1ccc(S(=O)(=O)NC2CCS(=O)(=O)C2)cc1 (configuration not stated) | inactive
CCOC(=O)c1ccc(NC(=O)c2ccc3c(c2)OCO3)cc1 | inconclusive: 39.8 µM [inhibitor, single point]
CCN(CC)C(=O)C1CCCN(Cc2ccccc2)C1 (configuration not stated) | inconclusive: 79.4 µM [inhibitor, single point]
CSc1ccc(/C=N/n2c(C3CCCCC3)n[nH]c2=S)cc1 | inconclusive: 56.2 µM [inhibitor, partial curve, poor fit]
CCc1ccc(C(=O)/C=C/Nc2ccc(S(=O)(=O)Nc3onc(C)c3C)cc2)cc1 | inconclusive: 39.8 µM [inhibitor, partial curve, poor fit]
CC1CCN(CCOc2ccc(Cl)c(Cl)c2)CC1 | inconclusive: 56.2 µM [inhibitor, single point]
COc1ccccc1CNS(=O)(=O)CCNC1CCCCC1 | inactive
CNC(=O)c1sc(Nc2cc(C)ccc2C)nc1C | inconclusive: 50.1 µM [inhibitor, partial curve]
Cc1cc(/C=N/O)c(C)n1-c1cccc(Cl)c1 | inconclusive: 70.8 µM [inhibitor, partial curve]
COc1ccc(N2CCN(c3nc(NCCc4ccc(OC)c(OC)c4)nc(OC)n3)CC2)cc1 | inconclusive: 39.8 µM [inhibitor, single point]
